Among all 45,000 compounds or so, about 65 (0.1%) were called active. Calls come from the whole dose curve; as a rule, active = well fitted activation curve with a large enough effect; inconclusive = small, poorly fitted or top-dose-only effect; inactive = no such curve, though single readings can be large or run the other way. This is one part of the list.
These compounds were tested against Galactocerebrosidase (Homo sapiens) (UniProt P54803) (assay: A Novel Cell-Based Assay to Identify Small Molecules for B -Galactocerebrosidase). Details: 145M-Twi-hGALC-G270D cells (Twitcher mouse brain line with human GALC G270D), HMU-beta-Gal fluorescence, 48 h; series mostly up to 57.5 µM; activation: at the top concentration.
Method in brief: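 Brain-derived Twitcher mouse 145M-Twi cells stably expressing human GALC-G270D or wild-type GALC, treated live, then residual GALC activity read by fluorescence of HMU-b-Gal substrate (0.1 mM final) in citrate-phosphate buffer pH 5.2 with sodium taurocholate. Signal increase indicates enhancement.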
Note: 0% is about no effect; nearly all actives have a fitted effect of over 65% in size.

Chain of UniProt P54803 (P54803 whole entry, looked up): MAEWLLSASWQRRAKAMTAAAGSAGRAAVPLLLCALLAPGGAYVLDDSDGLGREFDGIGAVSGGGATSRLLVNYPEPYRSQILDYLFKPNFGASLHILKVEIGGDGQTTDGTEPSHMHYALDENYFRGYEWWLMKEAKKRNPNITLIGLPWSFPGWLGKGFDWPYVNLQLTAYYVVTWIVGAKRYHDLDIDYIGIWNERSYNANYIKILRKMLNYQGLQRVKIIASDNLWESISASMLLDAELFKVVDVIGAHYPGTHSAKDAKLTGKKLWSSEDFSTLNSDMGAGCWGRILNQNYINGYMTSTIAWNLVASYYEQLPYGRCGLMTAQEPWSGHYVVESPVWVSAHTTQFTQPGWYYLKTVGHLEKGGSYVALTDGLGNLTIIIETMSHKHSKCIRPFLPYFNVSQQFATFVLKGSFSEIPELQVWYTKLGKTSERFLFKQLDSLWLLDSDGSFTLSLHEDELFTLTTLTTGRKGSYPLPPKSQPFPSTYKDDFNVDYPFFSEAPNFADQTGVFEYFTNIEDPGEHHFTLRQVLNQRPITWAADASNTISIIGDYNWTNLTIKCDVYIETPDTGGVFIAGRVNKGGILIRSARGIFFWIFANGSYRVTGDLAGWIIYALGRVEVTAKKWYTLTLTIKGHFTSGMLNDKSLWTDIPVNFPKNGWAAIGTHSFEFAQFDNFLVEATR

activation, inactive:
CN(C)CCCO[C@@H]1[C@H]2OC(C)(C)O[C@H]2O[C@@H]1C(O)CO (stereo partly drawn) -8.64%, CCc1ccccc1NC(=O)Cn1nc(N2CCN(c3ccccc3OC)CC2)ccc1=O -6.35%, COc1ccc(OC)c(NC(=O)CC(=O)Nc2ccc3nc4n(c(=O)c3c2)CCCCC4)c1 -15.1%, Cc1nc(SCC(=O)Nc2ccc(C(=O)O)cc2)n[nH]1 -20%, CCOc1ccccc1C(=O)N1CCC(c2nc3ccccc3o2)CC1 -10.7%, COc1ccc(C(=O)NCc2ccc(OCCN(C)C)cc2)cc1OC -19.9%, Cc1ccc(C)c(N2CCN(C(=O)CSCc3ccccc3Cl)CC2)c1 -1.5%, COc1cccc(NC(=O)CC2Nc3cc(C)c(C)cc3NC2=O)c1 (stereo not drawn) -4.57%, O=C(Nc1ncc([N+](=O)[O-])s1)c1cccs1 -5.59%, CC(C)(C)c1ccc(C(=O)Nc2onc3c2CCCC3)cc1 -14.7%, Cc1ccc(CNC(=O)CC2Oc3ccc(Cl)cc3NC2=O)cc1 (stereo not drawn) -2.28%, CCOc1ccc(NS(=O)(=O)c2ccc3c4c(cccc24)C(=O)N3)cc1 -8.79%, CC(C)(C)c1ccc(C(=O)NCC(c2ccc(Cl)cc2)N2CCOCC2)cc1 (stereo not drawn) -4.26%, Cc1ccc(CN(Cc2ccco2)C(=O)COc2ccc(C)c(C)c2)cc1 -0.194%, Cc1cccc(NC(=O)CCS(=O)(=O)c2cc(Br)cc3c2N(C(=O)C2CC2)CC3)c1 2.88%, CCS(=O)(=O)N1CC(=O)N(c2ccc(Cl)cc2)C(C)(C(=O)NC2CCCCC2)C1 (stereo not drawn) -5.55%, CCOc1cccc2cc(S(=O)(=O)c3ccccc3F)c(=O)oc12 -20.7%, Cc1ccc(CO)cc1Nc1ncnc2onc(-c3ccc(F)cc3)c12 -8.09%, CC(=O)Nc1ccccc1-c1nc2ccccc2n(CC(=O)Nc2cccc(C(F)(F)F)c2)c1=O -11.4%, COc1ccc(/C=C/C(=O)Nc2nc(-c3cccs3)ns2)cc1OC -9.85%, COc1ccc(N2CC(NC(=O)c3ccc(S(=O)(=O)N4CCCCC4)cc3)CC2=O)cc1 (stereo not drawn) 7.9%, CCc1cccc(NC(=O)C(Cc2ccccc2)n2cccc2)c1 (stereo not drawn) -2.93%, CCOc1ccc(CNC(=O)c2ccc3c(c2)nc2n3CCOC2)cc1OC -16.1%, Cc1ccc(C(=O)Nc2c(C)nc3ccccn3c2=O)cc1C -18.8%, CCCOc1cccc(C(=O)Nc2cc(-c3ccccc3)no2)c1 -1.19%, CC1=C(C(=O)Nc2ccc(F)cc2F)C2(CCN(C(C)C)CC2)OC1=O 1.38%, CCc1ccc(NC(=O)CN(c2cc(C)cc(C)c2)S(=O)(=O)c2c(C)[nH]c(=O)[nH]c2=O)cc1 -15.3%, Cc1ccc(CNC(=O)c2ccc3nc(SCc4ccc(F)cc4)[nH]c3c2)cc1 -10.2%, CC1=C(c2ccc(C(C)C)cc2)S(=O)(=O)N=C1N1CCC(C(=O)NCCc2ccco2)CC1 -6.58%, COc1cccc(-c2nc(SCC(=O)NC3CCCC3)c(-c3ccc(C)cc3)[nH]2)c1 -18.9%, CCN(CC)C(=O)CSc1nc(-c2ccc(C)cc2)nc2c1Cc1c(CO)cnc(C)c1O2 -11.9%, CCN(c1ccccc1)S(=O)(=O)c1c(-c2ccc(C)cc2)csc1C(=O)OC -18.1%, COc1ccccc1C(=O)Nc1ccc2oc(-c3cccc4c(Br)cccc34)nc2c1 -10.3%, CCC1Oc2ccc(Cl)cc2N(CC(=O)NCCc2ccc(Cl)cc2)C1=O (stereo not drawn) -13.8%, CCCN1Cc2cccc(C(=O)Nc3cccc(C(=O)OCC)c3)c2C1=O -7.39%, CCc1cccc(C)c1NC(=O)Cn1nc(C)c2nn(-c3ccc(Cl)cc3)c(C)c2c1=O -15.1%, COc1ccc(/C=C/C(=O)Nc2ccc3nc(N4CCC(C)CC4)cc(C)c3c2)cc1 -2.6%, CCCCCCCCCCCCCCCC[n+]1ccccc1 -14.7%, COCCNc1nc(NCc2cccc(Cl)c2)c2cnn(C)c2n1 -12%, C=Cc1ccc(Cn2c(C)c(CNCc3ccccc3C)c(C(=O)O)c2C)cc1 7.08%, COc1ccccc1CNC(=O)CCn1c(=O)c2cccn2c2cccnc21 -4.59%, O=[N+]([O-])c1cc(-c2nc(-c3ccccc3)no2)ccc1NC1CCCCC1 6.04%, O=C(Cc1csc2nc(-c3ccc(F)cc3)cn12)NCc1ccccc1 -13.5%, CCN(C(=O)CN1C(=O)COc2ccc(S(=O)(=O)N3CCOCC3)cc21)c1ccc(OC)cc1 -16.5%, Cc1ccc(NC(=O)c2ccc3c(O)c(S(=O)(=O)c4ccccc4)c(=O)[nH]c3c2)cc1Cl -26.6%, O=C(Nc1nnc(S(=O)(=O)N2CCCCC2)s1)c1ccccc1Br -21.1%, Cc1ccc(-c2nnc(Nc3ccc(C(=O)N(C)C)cc3)c3ccccc23)cc1S(=O)(=O)N(C)C -8.96%, N[C@@H](C(=O)N[C@@H]1C(=O)N2C(C(=O)O)=C(Cl)CS[C@H]12)c1ccccc1 -4.94% [at 11.5 µM], COc1ccc(C(=O)NCC(c2ccc(N(C)C)cc2)N2CCc3ccccc32)cc1OC (stereo not drawn) -21.2%, COC(=O)c1ccccc1NC(=O)C1CCN(C(=O)N2CC(C)Oc3ccccc32)CC1 (stereo not drawn) -6.75%, Cc1ccc(OCC(=O)Nc2ccccc2OCc2cc(=O)n3ccccc3n2)cc1C -1.89%, Cc1cccc(NC(c2ccccc2F)c2ccc3ccc(C)nc3c2O)n1 (stereo not drawn) -6.89%, CN1[C@@H]2CC[C@H]1CC(NC(=O)n1c(=O)[nH]c3ccccc31)C2 (stereo partly drawn) -15.5%, COc1ccc(-c2nc3ccccc3s2)cc1NC(=O)c1ccc(F)cc1 -15.6%, O=C(Nc1cccc(F)c1)c1ccc2c(c1)N(Cc1ccccc1)C(=O)c1ccccc1S2(=O)=O -21.2%, CC(C)(C)CC(=O)NCC(c1ccc2c(c1)OCO2)N1CCOCC1 (stereo not drawn) -5.47%, O=C(COc1ccc(Cl)cc1)OCc1cc(=O)n2nc(C3CC3)sc2n1 -4.46%, COc1ccc(C(=O)Nc2nc(-c3nnn(-c4ccc(C(C)C)cc4)c3C)ns2)cc1 0.441%, COc1ccccc1CCNC(=O)C(C)Sc1nc(-c2ccccc2)cc(C(F)(F)F)n1 (stereo not drawn) -3.38%, CCc1ccc(NC(=O)Cn2c(=O)n(CCC(=O)NCCc3ccc(Cl)cc3)c(=O)c3ccccc32)cc1 0.379%, COc1ccc(C)cc1NC(=O)Nc1cccc(-c2noc(C)n2)c1 -22.5%, Cc1noc(/C=C/c2ccccc2F)c1S(=O)(=O)N1CCC(C(=O)N2CCOc3ccccc32)CC1 -11.1%, COc1ccc(Nc2ncnc3c2nc2n3CCCCC2)cc1 -12.1%, CCCOc1ccc(CNC(=O)c2[nH]c3cc(OC)ccc3c2Sc2ccccc2)cc1 -9.62%, O=C(Cn1ncn2c(cc3ccccc32)c1=O)NCc1ccc(F)cc1 -8.36%, Cc1ccc(-c2cc(-c3ccccc3)c(C#N)c(SCC(O)CS(=O)(=O)Cc3ccccc3)n2)cc1 (stereo not drawn) -12.4%, Cc1ccc2[nH]c(=O)c3cc(C(=O)NCCCN4CCC(C)CC4)sc3c2c1 -11.9%, CCN(C(=O)CSc1nc2ccccc2n1Cc1ccc(F)cc1Cl)c1ccccc1 -16.8%, CC(=O)Nc1ccc(N(C(=O)Cn2nnc3ccccc32)C(C(=O)NCc2ccccc2)c2ccc(C)cc2)cc1 (stereo not drawn) -26.9%, COc1ccc(CCNC(=O)c2c(C)oc3ncn(C)c(=O)c23)c(OC)c1 -2.81%, COC(=O)c1ccccc1NC(=O)CCCn1c(=O)c2cccn2c2cccnc21 -1.55%, COc1ccc(CC(=O)NCc2nc3cccnc3n2Cc2ccccc2)cc1 -7.32%, CN(C)c1ccc(Nc2ncnc3sc4c(c23)CCCC4)cc1 -0.357%, Cc1cc(NC(=O)CN2CCC(C)CC2)nc2c1c(=O)oc1ccccc12 -9.93%, CCOC(=O)C(Cc1c[nH]c2ccccc12)NC(=O)COc1ccc(CC)cc1 (stereo not drawn) -15.9%, COc1ccc(C)cc1N(C)C(=O)CCc1nc(-c2ccccc2F)no1 -4.51%, CCOC(=O)c1c(C)[nH]c(C)c1S(=O)(=O)N1CCC(C(=O)NCc2ccccc2Cl)CC1 -18.6%, CCCCNc1oc(-c2ccc(COc3ccc(OC)cc3)o2)nc1C#N -11%, Cc1ccc(Cl)cc1NC(=O)CN1C(=O)CCc2ccccc21 -12.5%, O=c1c2cn[nH]c2nc(SCc2c(F)cccc2F)n1-c1ccc(Cl)cc1 -20.3%, CCCCN(CC)CCCNC(=O)Cn1ncc2c([nH]c3ccc(C)cc32)c1=O -4.51%, COc1cccc(N2CCN(S(=O)(=O)c3cc(-c4cc(C)no4)ccc3C)CC2)c1 -21.1%, O=C(Cn1cnc2ccccc2c1=O)NCCC(=O)Nc1ccc(F)cc1 -16.3%, CC(C)COc1ccc(C(=O)Nc2cc(-c3ccccc3)no2)cc1 -23.5%, CCOc1cccc(C(=O)Nc2nc3c(s2)CC(C(C)(C)C)CC3)c1 (stereo not drawn) -11.9%, COc1ccc(N(CC(=O)N2CCN(c3ccc(F)cc3)CC2)S(=O)(=O)c2c(C)noc2C)cc1 -24.2%, O=C(NCc1ccco1)c1ccc2c(c1)N(Cc1ccc(F)cc1)C(=O)c1ccccc1S2(=O)=O -6.49%, CCCCN1C(=O)C(O)(CC(=O)c2ccc(C)cc2C)c2cc(Br)ccc21 (stereo not drawn) -10.3%, COc1cc(OC)cc(-c2nc3n(n2)C(c2ccccc2)C(C(N)=O)=C(C)N3)c1 (stereo not drawn) -18.1%, CC(=O)N1c2ccc(S(=O)(=O)Nc3ccc(Cl)cc3C)cc2CC1C (stereo not drawn) -4.85%, COc1ccccc1NC(=O)COc1ccc(-c2nn(C)c(=O)c3ccccc23)cc1 -8.36%, COc1cccc(CNC(=O)c2cc(Sc3cccc(Cl)c3)nc3ccccc23)c1 -27%, Cc1ccc(/C=C/C(=O)Nc2ccccc2C(N)=O)o1 -11.6%, CCCCS(=O)(=O)c1oc(-c2ccc(F)cc2)nc1S(=O)(=O)c1ccc(C)cc1 -15.6%, Cn1c(=O)oc2cc(S(=O)(=O)N3CCC(C(=O)N4CCN(c5ccccc5F)CC4)CC3)ccc21 -7.61%, CCOC(=O)c1c(NC(=O)COc2cccc(C)c2C)sc2c1CCC(CC)C2 (stereo not drawn) -22.9%, O=C(NCc1cccc(F)c1)c1ccc(NC(=O)c2nsc3ccccc23)cc1 -4.87%, Cc1ccc(CCNC(=O)c2c(C)oc3ncn(CC(C)C)c(=O)c23)cc1 0.615%
